Measured values published in the supplement of paper PMC11417369.
The list shows a part of the results.

Tested on: PfAP2-HC AP2 domain (GST-tagged)
Test: gcPBM binding intensity (ln(normalized median fluorescence intensity)); higher = stronger DNA binding
Summary of the method: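 An Agilent 4 × 180k array carrying primer-extended double-stranded 36-bp intergenic genomic probes and negative controls received GST-tagged P. falciparum DNA-binding domains expressed in E. coli, about 25 μg on average, for 1 h. The binding buffer contained 1× PBS, 1% milk, 0.2 mg/ml BSA, 0.5% salmon testes DNA and 0.03% Triton X-100. Binding intensity is the top Masliner-normalised natural-log median intensity across replicate spots of either probe orientation, read after Alexa488 anti-GST antibody staining and a 488 nm scan.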

First: ACGTTTTATAATTAATGTACAAATATTAAAATTGCA [XGTACX_site7869]
Second: GAATAAATTAAAAATGCACACTTTGATGGGTACATT [CACACA_site5220]
The “gcPBM binding intensity (ln)” value of the first is lower: 9.48 for the first, 9.7 for the second.

First: TATATTTGCAGTAATAATAATTATTATAAAAGATAA [XGTACX_negctrl_site547]
Second: TTATTTATTTTAAATTCACACATCGTGCTATTATAT [CACACA_site5003]
The “gcPBM binding intensity (ln)” value of the first is lower: 9.57 for the first, 10.1 for the second.

Compared with “TCATATATTTATGTATGTACATATATATATAGATTA [XGTACX_site380]”, “TATGAATGGTTAAGTACACACATATTAAGATATGTA [CACACA_site5852]” is higher in “gcPBM binding intensity (ln)” value: 9.44 for the first, 9.72 for the second.

Compared with “ATATAAACATATAATAGTACACTTCGATAATTTTAT [XGTACX_site3321]”, “ATTTAACATATAAAATGTACATATATATATATATTT [XGTACX_site2525]” is lower in “gcPBM binding intensity (ln)” value: 9.71 for the first, 9.7 for the second.

First: GTACCATCAAAATAAATATATATATATATATATTTT [GTGCAC_negctrl_site646]
Second: AAAATAAAAAAAATAAATAAAAAAAATAATAATAAA [CACACA_negctrl_site563]
The “gcPBM binding intensity (ln)” value of the first is lower: 9.66 for the first, 9.69 for the second.

Going from TCATAAATATAAAGTGTGCACTTGAATAATATGTAT to TAAATAAATCTGTGCTTGCACTTTTTTTGTTATTTT, the “gcPBM binding intensity (ln)” value falls from 9.72 to 9.66.

“ACATGTAATATAATGTGTACATATACAAAGGTATAT [XGTACX_site4145]” and “AGATGAGAAATATATACACACAATAATACCTATTTA [CACACA_site876]” are the same in “gcPBM binding intensity (ln)” value: 10.2 for the first, 10.2 for the second.

Compared with “ATAAAGTATATTATATGTACATATATATATTATATA [XGTACX_site1345]”, “TTTGTGTTGTATTTTTGTACATAAAATAAACTTAAA [XGTACX_site4637]” is lower in “gcPBM binding intensity (ln)” value: 9.64 for the first, 9.37 for the second.

Going from TTTCTTTTTTCTTCAGTGCATTAAAATTAACAAAAG to “GAGCCCAAAAAATTAGGTACGTATAAAGAGGTATTT [XGTACX_site5348]”, the “gcPBM binding intensity (ln)” value rises from 9.34 to 9.5.

Compared with “CATATATATATTGGAAGTACATATTTAATATTCATT [XGTACX_site3545]”, “AGGAAAATTTTATTTGCACACATTATTACGTCTAAA [CACACA_site2337]” is higher in “gcPBM binding intensity (ln)” value: 9.56 for the first, 9.82 for the second.

First: TCTTTTTTCATATTTTCACACATGTCTTTATATTTA [CACACA_site6025]
Second: ATTCCTTTATTATCACGTACTTATAAAATATAGTAT [XGTACX_site7498]
The “gcPBM binding intensity (ln)” value of the first is higher: 10 for the first, 9.85 for the second.

Compared with “ATAAACAGATAAAAGGGTACACACATATATACATGT [XGTACX_site452]”, “TTATATATATATTGTTCACACATAATATAAATATTT [CACACA_site5835]” is lower in “gcPBM binding intensity (ln)” value: 10.3 for the first, 9.47 for the second.

First: TTAAATAAAATAAAAACATGCACACTTTATTTTTTT [TGCATGCA_site719]
Second: TTTTAATAAATCATTTTCCTAATATTTATATTTGCT [TGCATGCA_negctrl_site232]
The “gcPBM binding intensity (ln)” value of the first is higher: 9.74 for the first, 9.52 for the second.

First: TTTTTCATTTAGCTTTTACACACTATATATTATTGA [CACACA_site7888]
Second: TATATTTTTATGTGTGTGCACAAAATAACAAAATAT [GTGCAC_site9596]
The “gcPBM binding intensity (ln)” value of the first is lower: 9.9 for the first, 10 for the second.

Compared with ATTATTTTTTTTGAAGTGCAATATTATTTTTAATCA, “GTTAAGTGGATATATACACACATATGCAATACATGA [CACACA_site7427]” is higher in “gcPBM binding intensity (ln)” value: 9.5 for the first, 9.88 for the second.

Compared with ATGGTTATATTTGAAGTGCAAAAAAAAATATATGTA, “TATACTACCCAGAGCTGTACAAAATAATAATAAGTT [XGTACX_site1045]” is higher in “gcPBM binding intensity (ln)” value: 9.59 for the first, 9.81 for the second.

Compared with “ATGTGGATTTTATAATGTACATATGATATTATTTTG [XGTACX_site7930]”, “CAATTCAATATATATACACACACACTATTAATAATT [CACACA_site9256]” is higher in “gcPBM binding intensity (ln)” value: 9.76 for the first, 10.3 for the second.

First: TACTTTTTTATTTGGTGTACAAATAAAATCATAATG [XGTACX_site1802]
Second: GAAGATATATAATAATTCATAGTTTTTTAATTTAAA [TGCATGCA_negctrl_site295]
The “gcPBM binding intensity (ln)” value of the first is higher: 9.62 for the first, 9.54 for the second.

Going from “ATATATTTTGATTGCACACAGAATTTAAATCATGAT [CACACA_site2343]” to “CTCTTTTCTTATAATACACACAGTAATATTTATATA [CACACA_site6824]”, the “gcPBM binding intensity (ln)” value falls from 9.78 to 9.77.

Compared with “AATAAAAAAAATTTCTGTACATATATTTATTATATA [XGTACX_site1883]”, “AAAAAAAAAAAAATTGCATGTAAATGAAATAATAAA [TGCATGCA_site116]” is higher in “gcPBM binding intensity (ln)” value: 9.44 for the first, 9.68 for the second.

Compared with “AAAGAAGAAAAATATAGTACAGGGCACATGTCCTGT [XGTACX_site6293]”, “ATTTAAATTTAAAAAACACACATAATATGATATATA [CACACA_site1973]” is higher in “gcPBM binding intensity (ln)” value: 9.6 for the first, 9.69 for the second.

Going from “TTATTTTTATATTTCACACACATATACTTTTACATA [CACACA_site4097]” to “TATTGTAGTCATGCACGTACAAAAGGAAAGTTAAAA [XGTACX_site4446]”, the “gcPBM binding intensity (ln)” value falls from 10.2 to 9.59.

First: ATAAATTAATGGAGAAATCTTATGAATTTATTTTAA [CACACA_negctrl_site1068]
Second: AAATAAAATATTACATGTACATGTTCATAAAAAAAA [XGTACX_site1067]
The “gcPBM binding intensity (ln)” value of the first is lower: 9.47 for the first, 9.61 for the second.

Compared with “TACATACACAGACACACACACATATATATATATATA [CACACA_site3557]”, “AATAAAAAGGAACACACACACACACCGATATATATA [CACACA_site5895]” is higher in “gcPBM binding intensity (ln)” value: 10.9 for the first, 11.2 for the second.

Going from “AATATATACATATATACACACACATATATTATATAT [CACACA_site7980]” to “TAAATATAAGTGTACATACACACTTTACAATCTCAT [CACACA_site3006]”, the “gcPBM binding intensity (ln)” value falls from 10.1 to 9.73.

Compared with “TTATACGATAATATGACACACAATACAAAAATGTAA [CACACA_site1918]”, “CCTATAAAACCATATACACACATATATATAAAAAAA [CACACA_site4013]” is lower in “gcPBM binding intensity (ln)” value: 9.86 for the first, 9.83 for the second.

First: TGTTTCTAAAAATTTACACACAAAATATTTCTACAT [CACACA_site4098]
Second: TGGGTATATATAAAAGGTACACAAAATGAAGATATA [XGTACX_site4994]
The “gcPBM binding intensity (ln)” value of the first is higher: 9.98 for the first, 9.67 for the second.

Going from “TAATTTCTTATGTATTGTACAAATAATATATTATAT [XGTACX_site1037]” to “TTTTCTGTGTTTTTGGGTACACACAAATAGCTTGTA [XGTACX_site8553]”, the “gcPBM binding intensity (ln)” value rises from 9.69 to 9.9.

Going from “ATGGTTTAATTATATACACACTCGAAAATAACGACA [CACACA_site3258]” to “TGATATTATATTGTGATGCACTTTAAAAATATAAAG [GTGCAC_site9509]”, the “gcPBM binding intensity (ln)” value falls from 9.64 to 9.25.
